The full ranking holds about 18,000 sequences; the median of “TetR repression strength (sort-seq, GFP reporter)” is about 0.23, and the highest 2% start at about 0.68. Some of the results follow.

In this experiment the target is TetR (class B, Tn10) (UniProt P04483). The experiment is described as follows: TetR repression strength (sort-seq, GFP reporter) (relative to tetO2 = 1); higher = stronger repression. The settings on record: E. coli. Summed up: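 Three independent transformations of E. coli SIG10-MAX were made with a low-copy plasmid library randomizing eight operator positions between a constitutive promoter and sfGFP, with constitutive TetR. Following 5 h at 37 °C in LB plus 50 µg/mL chloramphenicol, 10^6 cells went through FACS into 13 fluorescence bins, and each bin was sequenced by Illumina. Repression strength was defined as the top bin index plus one minus the read-weighted mean bin, divided by the unaltered operator's value. Averages included only members reaching ≥30 reads in all replicates with a CV ≤0.5.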
UniProt P04483, sequence (P04483 whole entry): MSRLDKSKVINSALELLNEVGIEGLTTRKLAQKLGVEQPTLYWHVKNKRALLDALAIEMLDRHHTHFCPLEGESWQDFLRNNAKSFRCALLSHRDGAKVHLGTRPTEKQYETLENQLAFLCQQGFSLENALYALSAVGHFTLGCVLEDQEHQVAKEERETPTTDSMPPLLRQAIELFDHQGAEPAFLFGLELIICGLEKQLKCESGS
Sequence TCCCTAGCAGTAAGCGAGA came in with a TetR repression strength of 0.226.

In turn, TCCCTATCAGTGTCAGAGA gave a TetR repression strength of 0.958.

For the sequence TCCCCGCGAGTGTGTGAGA, the TetR repression strength came out at 0.206. On to TCCCGCGGAGTTGTAGAGA, for which the TetR repression strength was 0.106. In the case of TCCCCTGCAGTCGTAGAGA, the TetR repression strength was determined as 0.346. For TCCCAACTAGTGTTGGAGA, the TetR repression strength was 0.309. Regarding TCCCATTGAGTAATTGAGA, the TetR repression strength is 0.104. TCCCCTACAGTCCGCGAGA displayed a TetR repression strength of 0.527. Regarding TCCCACTCAGTAGATGAGA, the TetR repression strength was found to be 0.343. In the case of TCCCAGCGAGTTGTTGAGA, the TetR repression strength worked out at 0.177. TCCCACATAGTTGTGGAGA yielded a TetR repression strength of 0.178. As for TCCCATGCAGTGGAGGAGA, the figure is 0.254.

As for TCCCCCGGAGTTAGAGAGA, the TetR repression strength is 0.255. With TCCCTCAGAGTCACAGAGA the figure was 0.151; with TCCCCAGGAGTGTCAGAGA, 0.26. In turn, TCCCCTAAAGTTCGCGAGA yielded a TetR repression strength of 0.486. The sequence TCCCTATGAGTTGGGGAGA gave a TetR repression strength of 0.218. As for TCCCCTCGAGTTCGAGAGA, the figure is 0.323; as for TCCCAAGAAGTTGAAGAGA, 0.154. As for TCCCCCGAAGTGTGGGAGA, the TetR repression strength is 0.219.

As for TCCCATCTAGTATAGGAGA, the TetR repression strength stood at 0.242.

The sequence TCCCTGAGAGTAGTTGAGA had a TetR repression strength of 0.0923. With TCCCGAAGAGTTCGTGAGA, the TetR repression strength is 0.224. In turn, TCCCACGCAGTTCTTGAGA came in with a TetR repression strength of 0.219.

In the case of TCCCAATTAGTGGTAGAGA, the TetR repression strength worked out at 0.326. In the case of TCCCAATTAGTGAACGAGA, the TetR repression strength turned out to be 0.332. For the sequence TCCCGAGTAGTATCTGAGA, the TetR repression strength amounted to 0.219.

Sequence TCCCGGACAGTCTAGGAGA registered a TetR repression strength of 0.201. TCCCGTCGAGTAGAGGAGA: the TetR repression strength turned out to be 0.331. As for TCCCTCAGAGTAAGGGAGA, the figure is 0.267; as for TCCCCCAGAGTGCATGAGA, 0.527. The sequence TCCCCTGAAGTTTGGGAGA yielded a TetR repression strength of 0.218. On to TCCCCACCAGTAGGGGAGA, for which the TetR repression strength was found to be 0.215. With TCCCAGATAGTCTGGGAGA the figure was 0.104. With TCCCACTGAGTGGGCGAGA the figure was 0.222. TCCCATACAGTGAGTGAGA: the TetR repression strength worked out at 0.176. As for TCCCCGAAAGTCGTGGAGA, the figure is 0.247; as for TCCCAGAGAGTCGTCGAGA, 0.104.

In turn, TCCCAATAAGTATTTGAGA registered a TetR repression strength of 0.281. Sequence TCCCAAAAAGTGTAGGAGA gave a TetR repression strength of 0.263. With TCCCTACTAGTCCGCGAGA the figure was 0.45; with TCCCGCCGAGTCTGGGAGA, 0.0453.

Regarding TCCCCGAGAGTGCTTGAGA, the TetR repression strength was found to be 0.132.

For the sequence TCCCGGACAGTATATGAGA, the TetR repression strength came to 0.304. With TCCCACCAAGTGATAGAGA the figure was 0.531; with TCCCCTTCAGTCCGTGAGA, 0.338; with TCCCTTGCAGTCTGTGAGA, 0.619.

The sequence TCCCTAGAAGTATTCGAGA displayed a TetR repression strength of 0.0484. With TCCCACACAGTGTCCGAGA the figure was 0.251; with TCCCGTATAGTTCTTGAGA, 0.207; with TCCCCGACAGTCTGGGAGA, 0.134. TCCCAGGGAGTATGCGAGA yielded a TetR repression strength of 0.328. Sequence TCCCGCTGAGTGTGCGAGA yielded a TetR repression strength of 0.00864. With TCCCGTCGAGTCTGGGAGA the figure was 0.226; with TCCCTCACAGTTAGCGAGA, 0.264.

TCCCGTACAGTGGATGAGA showed a TetR repression strength of 0.32. With TCCCGTCCAGTGATGGAGA the figure was 0.324; with TCCCGTGGAGTGCGGGAGA, 0.189.

The sequence TCCCCGCCAGTGCACGAGA displayed a TetR repression strength of 0.186. As for TCCCCAGAAGTATACGAGA, the figure is 0.538; as for TCCCATATAGTTTCAGAGA, 0.0524; as for TCCCCATCAGTGTTCGAGA, 0.202. As for TCCCTCTTAGTGCGCGAGA, the figure is 0.29; as for TCCCGACTAGTCATGGAGA, 0.128.

Turning to TCCCCTGCAGTAGGAGAGA, the TetR repression strength stood at 0.233. With TCCCAATGAGTAAGGGAGA the figure was 0.276. Sequence TCCCAACGAGTCTAGGAGA displayed a TetR repression strength of 0.251. The sequence TCCCGTTGAGTACTAGAGA showed a TetR repression strength of 0.02. As for TCCCGAGTAGTGTGTGAGA, the figure is 0.28; as for TCCCATGTAGTTCTCGAGA, 0.135; as for TCCCTATGAGTGCTTGAGA, 0.335. Take TCCCTAGCAGTAGGTGAGA: the TetR repression strength turned out to be 0.519. The sequence TCCCAAGTAGTCTAAGAGA yielded a TetR repression strength of 0.237.

For TCCCTGCAAGTCTGAGAGA, the TetR repression strength is 0.211. Consider TCCCGTAAAGTCGCTGAGA, for which the TetR repression strength was 0.261. TCCCGGACAGTGAGTGAGA displayed a TetR repression strength of 0.249. Take TCCCGGATAGTCGGAGAGA: the TetR repression strength was found to be 0.159. TCCCGTTTAGTGGGCGAGA registered a TetR repression strength of 0.207. With TCCCTAGCAGTGTCCGAGA the figure was 0.342; with TCCCTATCAGTTTCTGAGA, 0.638; with TCCCAACAAGTCTTGGAGA, 0. TCCCCCCCAGTGGATGAGA came in with a TetR repression strength of 0.232. TCCCAGATAGTTTACGAGA gave a TetR repression strength of 0.311.

The sequence TCCCGGGCAGTGCTGGAGA showed a TetR repression strength of 0.323. With TCCCTCGTAGTGTTCGAGA the figure was 0.0982.

Consider TCCCTGAGAGTACTTGAGA, for which the TetR repression strength amounted to 0.12. For TCCCGTTAAGTGCGGGAGA, the TetR repression strength was determined as 0.183.

In the case of TCCCATATAGTAAGGGAGA, the TetR repression strength worked out at 0.179. With TCCCTTTCAGTTTGGGAGA the figure was 0.925.

For TCCCGGCTAGTCATTGAGA, the TetR repression strength is 0.385. The sequence TCCCTTGGAGTCACTGAGA came in with a TetR repression strength of 0.

Regarding TCCCGAGCAGTTTATGAGA, the TetR repression strength came out at 0.263.

TCCCGGCCAGTGGCGGAGA registered a TetR repression strength of 0.234.

For the sequence TCCCAGTGAGTTATTGAGA, the TetR repression strength turned out to be 0.284. The sequence TCCCGCCGAGTCGAGGAGA showed a TetR repression strength of 0.36. Sequence TCCCGGGGAGTGTCAGAGA returned a TetR repression strength of 0.377. As for TCCCTAACAGTGAATGAGA, the figure is 0.46; as for TCCCCCCGAGTTGGAGAGA, 0.309; as for TCCCCCCGAGTGACCGAGA, 0.233.

Turning to TCCCATCAAGTGGGGGAGA, the TetR repression strength amounted to 0.167.

In turn, TCCCAACTAGTTGACGAGA showed a TetR repression strength of 0.317. Regarding TCCCTTAAAGTAGGAGAGA, the TetR repression strength is 0.0721.

The record behind these values is a collection of fitness landscapes (doi:10.1038/s41467-024-54723-y).
